Reference: PubChem BioAssay (NCATS)
The inconclusive results got no clear call from the source; some entries with a clear call stand among them for comparison. Potencies of inconclusive entries are left out as doubtful fits. The source made the active and inactive calls. Calls follow the shape of the dose curve; as a rule, active = well fitted inhibition curve with a large enough effect; inconclusive = small, poorly fitted or top-dose-only effect; inactive = flat fitted curve, though single readings scatter.

These compounds were tested against Aldehyde dehydrogenase, mitochondrial (Homo sapiens) (UniProt P05091) (assay: qHTS for Inhibitors of the Aldehyde Dehydrogenase Family (ALDH2) Primary screen (AID 2061308; also: nearly all actives have a fitted effect of over 55% in size;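 as to activity change, negative = inhibition: plate controls were vehicle for no effect and reference inhibitor for full effect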)). Details: ALDH2 enzyme inhibition qHTS, 1536-well; series mostly up to 56 µM.
Potency is read from the fitted curve at half-maximal effect; tags tell the direction and shape of the fitted curve.

| SMILES | Potency | activity change, negative = inhibition |
| --- | --- | --- |
| S=C(Nc1cc(Cl)ccn1)N1CCN(c2ccc(Cl)cc2Cl)CC1 | inconclusive [inhibitor, single point] |  |
| CCCn1cnc2c(NCc3ccccc3)nc(N[C@H](CC)CO)nc21 | inconclusive [inhibitor, partial curve, poor fit] |  |
| COc1ccccc1NC(=O)Nc1ccc2ccccc2c1 | inconclusive [inhibitor, partial curve, poor fit] |  |
| CCNC(=O)[C@H]1O[C@H](n2cnc3c(NCC(c4ccccc4)c4ccccc4)nc(C(=O)NCCNC(=O)NC4CCN(c5ccccn5)CC4)nc32)[C@H](O)[C@@H]1O | inactive |  |
| COc1ccnc(NCc2ccc(O)c3ncccc23)c1 | inconclusive [inhibitor, partial curve] |  |
| CCCCn1cnc2cc(C(=O)N3CCCCC3)ccc21 | inactive |  |
| COc1cccc(CNc2ccc(S(=O)(=O)Nc3cccc4ccccc34)cc2)c1O | inconclusive [inhibitor, partial curve, poor fit] |  |
| O=C(Nc1ccccc1F)c1ccc(O)c2ncccc12 | inactive |  |
| Cc1cc(C)nc(NC(=S)N2CCN(c3nccc4ccccc34)CC2)c1 | inactive |  |
| Fc1ccc(-c2ccc(CNc3nc(-c4ccccc4C(F)(F)F)nc4ccccc34)cc2)cc1 | inconclusive [inhibitor, partial curve, poor fit] |  |
| Cc1c(P(=S)(c2ccccc2)c2ccccc2)[n+]2ccccc2n1CCc1ccccc1 | inactive |  |
| Cc1cc(C)nc(NC(=S)N2CCN(c3cccc4ccccc34)CC2)c1 | inconclusive [inhibitor, partial curve] |  |
| Cc1cc(NC(=O)Nc2ccc(F)c(F)c2)n(-c2ccccc2)n1 | inconclusive [inhibitor, partial curve, poor fit] |  |
| CS(=O)(=O)c1ccc(C(=O)OCC(=O)N2CCN(Cc3ccccc3)CC2)cc1[N+](=O)[O-] | inconclusive [inhibitor, partial curve] |  |
| CCN(CC)CCCCn1c(-c2ccccc2)nc2c(N(CCOC)CCOC)nc(C)nc21 | inactive |  |
| C[C@@H]1O[C@@H](O[C@H]2[C@H](OC(=O)[C@]34CCC(C)(C)C[C@H]3C3=CCC5[C@@]6(C)C[C@H](O)[C@H](O[C@@H]7O[C@H](CO)[C@@H](O)[C@H](O)[C@H]7O)[C@@](C)(CO)C6[C@H](O)C[C@@]5(C)[C@]3(C)C[C@H]4O)OC[C@H](O)[C@@H]2O)[C@H](O)[C@H](O)[C@H]1O[C@@H]1OC[C@@H](O)[C@H](O[C@H]2OC[C@](O)(CO)[C@H]2O)[C@H]1O (some centres undefined) |  | inactive: 5.31% [at 11.2 µM] |
| OC[C@H]1O[C@@H](OCCc2ccc(O)cc2)[C@H](O[C@@H]2OC[C@](O)(CO)[C@H]2O)[C@@H](O)[C@@H]1O | inactive |  |
| Cc1ccc2nc(NC3=NC4(CCCC4)C4=C(CCCC4=O)N3)oc2c1 | inactive |  |
| NC(=O)C1CCN(c2nc(-c3ccc(OC(F)(F)F)cc3)cs2)CC1 | inconclusive [inhibitor, full curve, poor fit] |  |
| O=C(Cc1ccc(Cl)c(Cl)c1)Nc1ccc(S(=O)(=O)Nc2cccc(O)c2)cc1 | inconclusive [inhibitor, full curve] |  |

| SMILES | Potency | activity change, negative = inhibition |
| --- | --- | --- |
| Cc1cccc(Nc2nn3c(=O)c4ccccc4nc3s2)c1 | inactive |  |
| CCC(Nc1ncnc2nc[nH]c12)c1nc2cccc(F)c2c(=O)n1-c1ccccc1 (centres undefined) | inconclusive [inhibitor, partial curve] |  |
| O=C1CCCC2=C1C(c1ccccc1I)N=C(Nc1nc3ccccc3o1)N2 (centres undefined) | inconclusive [inhibitor, partial curve] |  |
| Cc1cc(C)nc(NC(=S)N2CCN(c3ccc4c(c3)OCO4)CC2)c1 | inconclusive [inhibitor, partial curve] |  |
| Cn1c(NC2=NC3(CCCC3)C3=C(CCCC3=O)N2)nc2ccccc21 | inactive |  |
| O=C1C[C@@]2(C(=O)N1)C(=O)N(Cc1ccc(Br)cc1F)C(=O)c1cccn12 | inactive |  |
| N[C@H](C(=O)Nc1ccc(Cl)cc1C(=O)c1ccc[nH]1)c1ccccc1 | inactive |  |
| COC1/C=C/C(C)(O)C(SCC(N)C(=O)O)CC(=O)OC(C)C(C)CC/C=C/1C (centres undefined) | inactive |  |
| C=Cc1cc2oc(-c3ccc(O)c(F)c3)nc2cc1O | inconclusive [inhibitor, partial curve, poor fit] |  |
| Cc1ccc(NS(=O)(=O)c2ccc(-c3ccccc3)cc2)cc1C | inconclusive [inhibitor, single point] |  |
| O=c1c2ccc(-c3cn[nH]c3)cc2nc2sc(Nc3ccc4c(c3)CCC4)nn12 | inconclusive [inhibitor, partial curve] |  |
| Cc1ccnc(C(=S)N2CCN(c3cccc(C(F)(F)F)c3)CC2)c1 | inactive |  |
| NC(=O)C1CCN(c2ncnc(-c3ccc4c(c3)OCCCO4)n2)CC1 | inconclusive [inhibitor, partial curve, poor fit] |  |
| N#Cc1nc(-c2cccc3ccccc23)oc1Nc1ccccc1 | inconclusive [inhibitor, single point] |  |
| Nc1ncnc2c1nc(Cl)n2C1OC2COP(=O)(O)OC2C1O (centres undefined) | inactive |  |
| CC(Nc1ncnc2ccc(-c3ccc4c(c3)OCO4)cc12)c1ccco1 (centres undefined) | inconclusive [inhibitor, single point] |  |
| O=C(CN1C(=O)N/C(=C\c2cccn2-c2cccc(C(=O)O)c2)C1=O)Nc1ccc(Cl)cc1 | inconclusive [inhibitor, partial curve, poor fit] |  |
| CC(=O)c1ccc(-c2ccc3ncnc(NCc4ccc(C)o4)c3c2)o1 | inconclusive [inhibitor, partial curve, poor fit] |  |
| CCCC1CCN(C(=O)COC(=O)c2ccc(S(C)(=O)=O)c([N+](=O)[O-])c2)CC1 | inconclusive [inhibitor, full curve, poor fit] |  |
